The other results are listed elsewhere or left out. Some results are limits rather than exact numbers.

Sequences and labels used below:
B1: PhoQ; a variant is named by its letters at X, in order, P23837 (parent)
chain: MKKLLRLFFPLSLRVRFLLATAAVVLVLSLAYGMVALIGYSVSFDKTTFRLLRGESNLFYTLAKWENNKLHVELPENIDKQSPTMTLIYDENGQLLWAQRDVPWLMKMIQPDWLKSNGFHEIEADVNDTSLLLSGDHSIQQQLQEVREDDDDAEMTHSVAVNVYPATSRMPKLTIVVVDTIPVELKSSYMVWSWFIYVLSANLLLVIPLLWVAAWWSLRPIEALAKEVRELEEHNRELLNPATTRELTSLVRNLNRLLKSERERYDKYRTTLTDLTHSLKTPLXXLQXXLRSLRSEKMSVSDAEPVMLEQISRISQQIGYYLHRASMRGGTLLSRELHPVAPLLDNLTSALNKVYQRKGVNISLDISPEISFVGEQNDFVEVMGNVLDNACKYCLEFVEISARQTDEHLYIVVEDDGPGIPLSKREVIFDRGQRVDTLRPGQGVGLAVAREITEQYEGKIVAGESMLGGARMEVIFGRQHSAPKDE

In this test the parent is B1. The experiment in a line: enrichment ratio after two sorts for PhoP signalling (ratio (wild type AVST 3.29)); higher = more functional. The settings on record: with PhoP (E. coli).
On to MKPL, for which the enrichment ratio is not above 0.25.

Take ILRS: the enrichment ratio is not above 0.25.

NHYH: the enrichment ratio is not above 0.25.

Consider LCKD, for which the enrichment ratio is not above 0.25.

Take YLVA: the enrichment ratio was not above 0.25.

With NATN, the enrichment ratio is not above 0.25.

With AKKT, the enrichment ratio was not above 0.25.

In the case of DSSF, the enrichment ratio is not above 0.25.

As to AKVL, the enrichment ratio was determined as 5.91.

Consider WCRC, for which the enrichment ratio is not above 0.25.

As to HPVD, the enrichment ratio was not above 0.25.

For the variant QNLR, the enrichment ratio was not above 0.25.

On to RSPP, for which the enrichment ratio was not above 0.25.

As for HQLN, the enrichment ratio is not above 0.25.

Consider QLWA, for which the enrichment ratio was not above 0.25.

For the variant WHAR, the enrichment ratio was not above 0.25.

On to FGHP, for which the enrichment ratio is not above 0.25.

As for MHCP, the enrichment ratio is not above 0.25.

As for ACVL, the enrichment ratio stood at 5.91.

In the case of SDLY, the enrichment ratio is 0.38.

As to VRVL, the enrichment ratio was not above 0.25.

As for NQQD, the enrichment ratio is not above 0.25.

Regarding DQPT, the enrichment ratio was not above 0.25.

As to WTCW, the enrichment ratio is not above 0.25.

Take WPCC: the enrichment ratio is not above 0.25.

Consider STAR, for which the enrichment ratio is 0.472.

Regarding LSDQ, the enrichment ratio is not above 0.25.

With VSLW, the enrichment ratio is not above 0.25.

Consider GHWY, for which the enrichment ratio was not above 0.25.

Turning to QVWI, the enrichment ratio is not above 0.25.

Regarding IVHN, the enrichment ratio was not above 0.25.

Take RCWD: the enrichment ratio was not above 0.25.

As for QSAK, the enrichment ratio is not above 0.25.

With ASDY, the enrichment ratio was not above 0.25.

With MENM, the enrichment ratio is not above 0.25.

As to EGQI, the enrichment ratio is not above 0.25.

Consider HYHF, for which the enrichment ratio is not above 0.25.

For LMHN, the enrichment ratio was not above 0.25.

Consider FRIQ, for which the enrichment ratio was not above 0.25.

KAKL: the enrichment ratio was not above 0.25.

On to ETQE, for which the enrichment ratio is not above 0.25.

For the variant RCEW, the enrichment ratio is not above 0.25.

Consider LLVY, for which the enrichment ratio was not above 0.25.

For YMKH, the enrichment ratio was not above 0.25.

As to VLEP, the enrichment ratio is not above 0.25.

Consider SNLT, for which the enrichment ratio was found to be 7.56.

With PKDN, the enrichment ratio was not above 0.25.

As to DFQL, the enrichment ratio is not above 0.25.

Consider AVVM, for which the enrichment ratio stood at 2.31.

Regarding RMDT, the enrichment ratio was not above 0.25.

As for NYGR, the enrichment ratio was not above 0.25.

Consider GGQH, for which the enrichment ratio was not above 0.25.

Turning to SNGM, the enrichment ratio worked out at 15.3.

Take QLWD: the enrichment ratio was not above 0.25.

As for DRKC, the enrichment ratio is not above 0.25.

Consider VVSW, for which the enrichment ratio is not above 0.25.

Take HIWK: the enrichment ratio was not above 0.25.

Consider GLLN, for which the enrichment ratio was not above 0.25.

As for YMDV, the enrichment ratio is not above 0.25.

For the variant MHFA, the enrichment ratio was not above 0.25.

Turning to TTFD, the enrichment ratio is not above 0.25.

In the case of PMGV, the enrichment ratio is not above 0.25.

For YIRC, the enrichment ratio was not above 0.25.

Turning to DAAC, the enrichment ratio was not above 0.25.

With HGLG, the enrichment ratio came to 0.363.

For the variant ETHA, the enrichment ratio was not above 0.25.

On to PTAT, for which the enrichment ratio is not above 0.25.

Regarding NNFT, the enrichment ratio is not above 0.25.

FGLW: the enrichment ratio is not above 0.25.

As to IGHQ, the enrichment ratio was not above 0.25.

Regarding GGDF, the enrichment ratio is not above 0.25.

As to IRTS, the enrichment ratio is not above 0.25.

For GESC, the enrichment ratio was 9.96.

Take HQTW: the enrichment ratio was not above 0.25.

As for FWEQ, the enrichment ratio was not above 0.25.

Regarding LPSW, the enrichment ratio is not above 0.25.

With RTVF, the enrichment ratio is not above 0.25.

On to VKLG, for which the enrichment ratio is not above 0.25.

On to QKGI, for which the enrichment ratio was not above 0.25.

For the variant WNDL, the enrichment ratio is not above 0.25.

For the variant YQKT, the enrichment ratio is not above 0.25.

Regarding WTPY, the enrichment ratio was not above 0.25.

As for NPVS, the enrichment ratio is not above 0.25.

With QSLE, the enrichment ratio is not above 0.25.

As for RMTQ, the enrichment ratio is not above 0.25.

Turning to YEYW, the enrichment ratio is not above 0.25.

Consider WIPY, for which the enrichment ratio was not above 0.25.

Consider WKKH, for which the enrichment ratio was not above 0.25.

As to HHCI, the enrichment ratio is not above 0.25.

On to VEHF, for which the enrichment ratio is not above 0.25.

In the case of NYFI, the enrichment ratio is not above 0.25.

Regarding STYS, the enrichment ratio came to 0.267.

As for VNHG, the enrichment ratio was 0.693.

YDNI: the enrichment ratio was not above 0.25.

With QLAR, the enrichment ratio was not above 0.25.

Consider TSER, for which the enrichment ratio was not above 0.25.

Consider YHGK, for which the enrichment ratio is not above 0.25.

Turning to DAGM, the enrichment ratio is not above 0.25.

As to FYSW, the enrichment ratio is not above 0.25.

As for MCIG, the enrichment ratio is not above 0.25.

As for FMPV, the enrichment ratio is not above 0.25.

As to QASA, the enrichment ratio was 1.56.

Regarding NQPD, the enrichment ratio is not above 0.25.

As to LQLV, the enrichment ratio was not above 0.25.

With TQPY, the enrichment ratio is not above 0.25.

For IALG, the enrichment ratio is 2.3.

Turning to DFGW, the enrichment ratio is not above 0.25.

For the variant KFDW, the enrichment ratio was not above 0.25.

Turning to YMYQ, the enrichment ratio is not above 0.25.

Take PPKN: the enrichment ratio was not above 0.25.

As to IKGS, the enrichment ratio was not above 0.25.

For the variant RHPN, the enrichment ratio was not above 0.25.

Turning to RSGG, the enrichment ratio was not above 0.25.

In the case of KFSL, the enrichment ratio was not above 0.25.

SVFC: the enrichment ratio was not above 0.25.

Consider FDLD, for which the enrichment ratio was not above 0.25.

Turning to CVPL, the enrichment ratio is not above 0.25.

On to PCMM, for which the enrichment ratio is not above 0.25.

In the case of WGKA, the enrichment ratio was not above 0.25.

In the case of YGAH, the enrichment ratio is not above 0.25.

With DGGG, the enrichment ratio was not above 0.25.

For the variant FYRY, the enrichment ratio was not above 0.25.

For TFSK, the enrichment ratio was not above 0.25.

On to MNIK, for which the enrichment ratio was not above 0.25.

Take FFPK: the enrichment ratio was not above 0.25.

With LCVR, the enrichment ratio was not above 0.25.

For the variant QLIM, the enrichment ratio is not above 0.25.

With PAIC, the enrichment ratio was not above 0.25.

With GDIA, the enrichment ratio was 4.2.

As to SVLP, the enrichment ratio was not above 0.25.

In the case of SIKM, the enrichment ratio was not above 0.25.

As for SSWI, the enrichment ratio was found to be 2.38.

With LFKR, the enrichment ratio was not above 0.25.

Consider NRKY, for which the enrichment ratio is not above 0.25.

For the variant VTEL, the enrichment ratio is not above 0.25.

Regarding DHYE, the enrichment ratio is not above 0.25.

Turning to ESVY, the enrichment ratio is not above 0.25.

As for RPND, the enrichment ratio was not above 0.25.

On to APAD, for which the enrichment ratio was not above 0.25.

YRSN: the enrichment ratio was not above 0.25.

LSFC: the enrichment ratio was 0.328.

For the variant WTLR, the enrichment ratio is not above 0.25.

Consider SMEQ, for which the enrichment ratio was not above 0.25.

YPRG: the enrichment ratio was not above 0.25.

Take IFFC: the enrichment ratio is not above 0.25.

In the case of AVTH, the enrichment ratio was determined as 9.18.

PSPA: the enrichment ratio was not above 0.25.

As for VDSG, the enrichment ratio was not above 0.25.

With NPHR, the enrichment ratio was not above 0.25.

On to IWFY, for which the enrichment ratio is not above 0.25.

Take GQFN: the enrichment ratio is not above 0.25.

For KKAD, the enrichment ratio was not above 0.25.

For IYNG, the enrichment ratio was not above 0.25.

Source of the values: a collection of fitness landscapes (doi:10.1126/science.1257360).
